In patent US20210171593A1 (HANGZHOU SUMGEN BIOTECH, published 2021):
Where two headings read alike, the source gives them in different places.

T1: mouse CD47 (Beijing Yiqiao Shenzhou Biotechnology Co., Ltd.) (mouse, UniProt Q61735 19-140, limits assumed)
T1 construct: also called mouse CD47 molecules
T1 sequence (looked up): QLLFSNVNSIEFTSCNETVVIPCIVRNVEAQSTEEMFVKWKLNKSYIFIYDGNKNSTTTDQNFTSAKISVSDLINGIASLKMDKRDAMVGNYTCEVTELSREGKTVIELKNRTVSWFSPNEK


Assays:
[1] = molecular target: CD47 molecule (Biacore, Example 3) (Homo sapiens (Human), UniProt Q08722 part only, limits assumed); test: Biacore (SPR)
[2] = molecular target: T2, human CD47 (Beijing Yiqiao Shenzhou Biotechnology Co., Ltd.) (human, UniProt Q08722 part only); test: ELISA, coated human CD47, anti-human IgG HRP
T2 construct: also called human CD47 molecules

BSA (BOVOGEN) = molecular target: T3, BSA (BOVOGEN) (bovine, UniProt P02769); test: ELISA, coated BSA, anti-human IgG HRP
T3 construct: Control coat in the specificity ELISA

[3] = molecular target: T4, CD47 on the surface of tumor cells (Raji cells, Jurkat cells, A549 cells) (human, UniProt Q08722 part only); test: flow cytometry on Jurkat cells
T4 construct: Endogenous CD47 of the cell lines; also called surface CD47; CD47 molecules on the surface of tumor cells

[4] = molecular target: T4, CD47 on the surface of tumor cells …; test: flow cytometry on Raji cells
[5] = molecular target: T4, CD47 on the surface of tumor cells …; test: flow cytometry on A549 cells
[6] = molecular target: T1, mouse CD47 (Beijing Yiqiao Shenzhou …); test: ELISA, coated mouse CD47, anti-human IgG HRP
[7] = molecular target: T2, human CD47 (Beijing Yiqiao Shenzhou …); test: ELISA, coated human CD47, anti-human IgG HRP; remark: listed apart in the source
[8] = molecular target: CD47-Fc protein (Cat #12283-H02H, Sino Biological) (Homo sapiens (Human), UniProt Q08722 part only); test: cell-based or functional assay

Sequence of BSA (BOVOGEN) (P02769 25-607 limits assumed): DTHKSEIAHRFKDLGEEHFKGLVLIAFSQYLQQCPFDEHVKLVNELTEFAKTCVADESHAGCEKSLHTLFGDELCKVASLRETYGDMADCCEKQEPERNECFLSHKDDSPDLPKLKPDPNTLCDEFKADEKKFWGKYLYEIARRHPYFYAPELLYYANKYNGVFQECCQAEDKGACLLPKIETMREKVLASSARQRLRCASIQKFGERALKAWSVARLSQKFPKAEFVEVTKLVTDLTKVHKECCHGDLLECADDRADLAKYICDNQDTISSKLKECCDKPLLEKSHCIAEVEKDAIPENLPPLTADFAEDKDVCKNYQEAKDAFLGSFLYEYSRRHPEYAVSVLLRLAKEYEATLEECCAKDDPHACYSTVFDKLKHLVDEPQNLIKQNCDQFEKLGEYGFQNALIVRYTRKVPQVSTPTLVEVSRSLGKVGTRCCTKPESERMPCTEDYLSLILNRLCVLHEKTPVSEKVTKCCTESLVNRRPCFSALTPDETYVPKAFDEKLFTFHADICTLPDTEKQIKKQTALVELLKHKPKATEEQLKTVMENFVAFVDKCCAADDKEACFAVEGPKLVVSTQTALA

Binder | koff [1] [s⁻¹] | kon [1] [M⁻¹ s⁻¹] | EC50 (read off the curve) [2] [µg/mL] | binding result (BSA (BOVOGEN)) | EC50 [3] [µg/mL] | EC50 [4] [µg/mL] | EC50 [5] [µg/mL] | binding result [6] | Kd [1] [nM] | EC50 (read off the curve) [7] [µg/mL] | blocking of the apoptosis of Jurkat-CSR cells induced by CD47-Fc (CCK-8, OD450), IC50 [8]
SS002 (Fc fusion, also called wild type SIRPα truncated domain-human IgG1 Fc fusion protein) ELQVIQPDKSVLVAAGETATLRCTATSLIPVGPIQWFRGAGPGRELIYNQKEGHFPRVTTVSDLTKRNNMDFSIRIGNITPADAGTYYCVKFRKGSPDDVEFKSGAGTELSVRAKPSL[sequence of human IgG1 Fc not given] | 0.0063 | 1.32e+06 | ~0.06 | no binding | 4.53 | 1.14 | 1.66 | no binding (tested: about 15 µg/ml) |  |  | 
SS002M12 (Fc fusion, also called M12-human IgG1 Fc fusion protein) ELQVIQPDKSVLVAAGETATLRCTATSLFPIGPIQWFRGAGPGRELIYNQRKGHFPRVTTVSDLTKRNNMDFSIRIGNITPADAGTYYCVKFRKGSPDDIEFKSGAGTELSVRAKPSL[sequence of human IgG1 Fc not given] | 0.00861 | 1.87e+06 |  |  |  |  |  |  | 4.62 |  | 
SS002M5 (Fc fusion, also called M5-human IgG1 Fc fusion protein) ELQVIQPDKSVLVAAGETATLRCTATSLVPVGPIQWFRGAGPGRNLIYNSRHGHFPRVTTVSDLTKRNNMDFSIRIGNITPADAGTYYCVKFRKGSPDDVEFKSGAGTELSVRAKPSL[sequence of human IgG1 Fc not given] | 0.00862 | 1.72e+06 |  |  |  |  |  |  | 5 |  | 
SS002M130 (Fc fusion, also called M130-human IgG1 Fc fusion protein) ELQVIQPDKSVLVAAGETATLRCTATSLLPIGPIQWFRGAGPGRVLIYNQREGHFPRVTTVSESTRRDNMDFSIRIRNITPADAGTYYCVKFRKGSPDDVEFKSGAGTELSVRAKPSL[sequence of human IgG1 Fc not given] | 0.00882 | 1.43e+06 |  |  |  |  |  |  | 6.2 |  | 
SS002M91G4 (Fc fusion, also called M91-human IgG4 Fc fusion protein) ELQVIQPDKSVLVAAGETATLRCTATSLLPVGPIQWFRGAGPGRQLIYNQKDGHFPRVTTASDLTKRNNMDFSINIGNITPADAGTYYCVKFRKGSPDDIEFKSGAGTELSVRAKPS[sequence of human IgG4 Fc with S228P (EU numbers) not given] |  |  |  |  |  |  |  |  |  |  | ~0.01 fold of the IC50 of TTI-621

Further binders by falling Kd [1], results first:

koff [1] [s⁻¹] | kon [1] [M⁻¹ s⁻¹] | EC50 (read off the curve) [2] [µg/mL] | binding result (BSA (BOVOGEN)) | EC50 [3] [µg/mL] | EC50 [4] [µg/mL] | EC50 [5] [µg/mL] | binding result [6] | Kd [1] [nM] | EC50 (read off the curve) [7] [µg/mL] | blocking of the apoptosis of Jurkat-CSR cells induced by CD47-Fc (CCK-8, OD450), IC50 [8] | Binder
0.00211 | 1.29e+06 |  |  |  |  |  |  | 1.65 |  |  | SS002M82 (Fc fusion, also called M82-human IgG1 Fc fusion protein) ELQVIQPDKSVLVAAGETATLRCTATSLFPVGPIQWFRGAGPGRELIYNQKEGHFPRVTTVSHSTKRNNMDFSIRIHNITPADAGTYYCVKFRKGSPDDSEFKSGAGTELSVRAKPSL[sequence of human IgG1 Fc not given]
0.0029 | 1.79e+06 |  |  |  |  |  |  | 1.6 |  |  | SS002M102 (Fc fusion, also called M102-human IgG1 Fc fusion protein) ELQVIQPDKSVLVAAGETATLRCTATSLLPIGPIQWFRGAGPGRELIYNGKGGHFPRVTTVSRSTKRDNMDFSIRIGNITPADAGTYYCVKFRKGSPDDIEFKSGAGTELSVRAKPSL[sequence of human IgG1 Fc not given]
0.00143 | 1.1e+06 |  |  |  |  |  |  | 1.3 |  |  | SS002M84 (Fc fusion, also called M84-human IgG1 Fc fusion protein) ELQVIQPDKSVLVAAGETATLRCTATSLFPVGPIQWFRGAGPGRELIYNQKEGHFPRVTTVSHSTRRNNMDFSIRIHNITPADAGTYYCVKFRKGSPDDSEFKSGAGTELSVRAKPSL[sequence of human IgG1 Fc not given]
0.000272 | 1.56e+06 |  | no binding | 0.796 | 0.197 | 0.322 |  | 0.18 | ~0.06 |  | SS002M91 (Fc fusion, also called M91-human IgG1 Fc fusion protein) ELQVIQPDKSVLVAAGETATLRCTATSLLPVGPIQWFRGAGPGRQLIYNQKDGHFPRVTTASDLTKRNNMDFSINIGNITPADAGTYYCVKFRKGSPDDIEFKSGAGTELSVRAKPSL[sequence of human IgG1 Fc not given]
